Laboratory results from PubChem BioAssay (NCATS).
Inconclusive means that the source gave no clear call. Such entries were picked first, then a sample of the others. A potency beside an inconclusive call is a rough fit, not a confirmed value. The source made the active and inactive calls. The call rests on the fitted dose curve; in most records, active means well fitted curve in the direction sought with a large enough effect; inconclusive means small, poorly fitted or top-dose-only effect, or another doubt; inactive means no such curve, though single readings can be large; an effect the other way counts as inactive or inconclusive.

Legend:
[1] = BET inhibitor-based combinations targeting novel dependencies in MECOM-rearranged (r) AML: HNT-34 cell line (AID 2202234); further: nearly all actives have a fitted effect of over 35% in size
In short: (§1)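 Normalized to DMSO and empty-well controls, the luminescence data from CellTiter-Glo after 48 hr drug exposure were fitted across 11 concentrations. Reported metrics are area under the dose-response curve and its Z-transformed form.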

[2] = BET inhibitor-based combinations targeting novel dependencies in MECOM-rearranged (r) AML: AML-191 cell line (AID 2202236; further: nearly all actives have a fitted effect of over 35% in size)
In short: (§2)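 Here, 11-point titrations of each agent were applied to 500 seeded cells and incubated 48 hr; CellTiter-Glo signal, scaled against DMSO and empty wells, was integrated as AUC, then Z-scored within the individual line.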

[3] = BET inhibitor-based combinations targeting novel dependencies in MECOM-rearranged (r) AML: UCSD-AML1 cell line (AID 2202235); settings: UCSD-AML1 AML cells viability, CellTiter-Glo, 48 h; series mostly up to 46 µM; further: nearly all actives have a fitted effect of over 40% in size
In short: as §1

[4] = BET inhibitor-based combinations targeting novel dependencies in MECOM-rearranged (r) AML: AML-194 cell line (AID 2202237; further: nearly all actives have a fitted effect of over 40% in size)
In short: as §2
Potency means the concentration at half of the fitted maximal effect; tags describe the fitted curve by direction and shape.

| Structure (SMILES) | Potency [1] | Potency [2] | Potency [3] | Potency [4] |
| --- | --- | --- | --- | --- |
| CN[C@H]1CN(c2ccc3c(=O)c(C(=O)O)cn(-c4nccs4)c3n2)C[C@@H]1OC | active: 0.679 µM | active: 1.35 µM |  |  |
| COCCCOc1cc(C[C@@H](C[C@H](N)[C@@H](O)C[C@H](C(=O)NCC(C)(C)C(N)=O)C(C)C)C(C)C)ccc1OC | inactive | inactive |  |  |
| O=C(C(c1ccccc1)c1ccccc1)N1CCN(CC(O)COc2cccc3ncccc23)CC1 (stereo not given) | inconclusive: 23.5 µM [inhibitor, single point] |  | inconclusive: 33.2 µM [inhibitor, single point] | inconclusive: 23.5 µM [inhibitor, single point] |
| CCN(CC)CCCCNc1ncc2cc(-c3cc(OC)cc(OC)c3)c(NC(=O)NC(C)(C)C)nc2n1 | active: 8.33 µM |  | inconclusive: 8.33 µM [inhibitor, single point] | active: 16.6 µM |
| CCC1(c2ccccc2)C(=O)NCNC1=O | inactive | inactive |  |  |
| NC(=O)c1cc(F)cc2c1C(=O)N(C1CCN(C3CCC(F)(F)CC3)CC1)C2 | inconclusive: 20.9 µM [inhibitor, partial curve] | inactive |  |  |
| CC(C)C(N)C(=O)OCC(CO)OCn1cnc2c(=O)[nH]c(N)nc21 (stereo not given) | inactive | inactive |  |  |
| CNC(=O)Nc1ccc(-c2nc(N3CC4CCC(C3)O4)c3cnn(C4CCC5(CC4)OCCO5)c3n2)cc1 | inconclusive: 0.0742 µM [inhibitor, full curve] | active: 0.0295 µM |  | inconclusive: 0.059 µM [inhibitor, full curve, poor fit] |
| O=C(NCCS(=O)(=O)c1ccc(C(F)(F)F)cn1)c1ccc(Cl)cc1 | inactive | inactive |  |  |
| O=C(/C=C/c1cccnc1)NCCCCC1CCN(C(=O)c2ccccc2)CC1 | inconclusive: 0.0093 µM [inhibitor, full curve] | active: 0.0059 µM |  |  |
| CC(C)(N)C(=O)N[C@H](COCc1ccccc1)C(=O)N1CCC2(CC1)CN(S(C)(=O)=O)c1ccccc12 | inconclusive: 20.9 µM [inhibitor, partial curve] |  | inconclusive: 26.3 µM [inhibitor, single point] | inconclusive: 20.9 µM [inhibitor, partial curve] |
| Cc1ccsc1C(=CCCN1CCC[C@@H](C(=O)O)C1)c1sccc1C | inactive | inactive |  |  |
| CCC1(C)CC(=O)NC1=O (stereo not given) | inactive | inactive |  |  |
| CCC(=O)N1CCOc2c(cc(-c3cc(OC)cc(OC)c3)cc2C(=O)N[C@H]2CCCN(C)C2)C1 | inconclusive: 14.8 µM [inhibitor, partial curve] | active: 14.8 µM |  |  |
| C[C@H](NC(=O)c1c(N)nn2cccnc12)c1cc2cccc(C#Cc3cnn(C)c3)c2c(=O)n1-c1ccccc1 | inconclusive: 1.82 µM [inhibitor, partial curve] |  | inconclusive: 2.57 µM [inhibitor, full curve] | active: 7.23 µM |
| CC1c2cccc(O)c2C(O)=C2C(=O)C3(O)C(O)=C(C(N)=O)C(=O)C(N(C)C)C3C(O)C21 (stereo not given) | inconclusive: 29.5 µM [inhibitor, single point] | inconclusive: 26.3 µM [inhibitor, single point] |  | inconclusive: 33.2 µM [inhibitor, single point] |
| CCCCCCCCc1ccc(CCC(N)(CO)CO)cc1 | active: 18.6 µM | active: 16.6 µM |  |  |
| CNc1ncc2cc(-c3cc(NC(=O)NCCC(C)(C)C)c(F)cc3C)c(C)nc2n1 | inconclusive: 0.662 µM [inhibitor, full curve] | inconclusive: 1.32 µM [inhibitor, full curve] | active: 1.05 µM | inconclusive: 0.833 µM [inhibitor, full curve] |
| CC(C)c1cc(C(C)C)c(CC(=O)NS(=O)(=O)Oc2c(C(C)C)cccc2C(C)C)c(C(C)C)c1 | active: 7.42 µM | active: 8.33 µM |  |  |
| Cc1cc(-c2ncc(CC(=O)Nc3ccc(-c4cnccn4)cn3)cc2C)ccn1 | inconclusive: 23.5 µM [inhibitor, partial curve, poor fit] | inconclusive: 10.5 µM [inhibitor, partial curve, poor fit] |  |  |
| CC(C)(C)C(=O)Oc1ccc2c(c1)nc(NC(=O)c1cccc([N+](=O)[O-])c1)n2CCCO | inconclusive: 10.5 µM [inhibitor, partial curve, poor fit] | inconclusive: 8.33 µM [inhibitor, full curve, poor fit] |  |  |
